Measurements as given in a collection of fitness landscapes (doi:10.1016/j.celrep.2020.107928).
Over roughly 81,000 sequences, “one-hybrid fitness for binding parS DNA” has its median near -0.17; the highest 2% begin near 0.51. The list shows a part of the results.

B1: Caulobacter ParB omega fusion; a variant is named by its letters at X, in order, B8GW30 (parent)
chain: MESVVVGEPGMSEGRRGLGRGLSALLGEVDAAPAQAPGEQLGGSREAPIEILQRNPDQPRRTFREEDLEDLSNSIREKGVLQPILVRPSPDTAGEYQIVAGERAWRAAQRAGLKTVPIMVRELDDLAVLEIGIIENVQRADLNVLEEALSYKVLMEKFERTQENIAQTIGKSXSHVANXMRLLXLPDEVQSYLVSGELTAXHARAIAAAADPVALAKQIIEGGLSVRETEALARKAPNLSAGKSKGGRPPRVKDTDTQALESDLSSVLGLDVSIDHRGSTGTLTITYATLEQLDDLCNRLTRGI

Variants of: B1
Assay: one-hybrid fitness for binding parS DNA (scaled: cognate 1, non-cognate 0); higher = stronger binding
Settings: with parS DNA site
Outline: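 Pre- and post-selection plasmids were Illumina-sequenced, three replicate libraries were pooled, and any variant with under 10 reads was removed. The libraries were Caulobacter ParB with four specificity codons randomised, selected in E. coli USO through a HIS3 reporter whose site is 19 bp from the promoter. Cells grew 48 hours at 37°C on M9 without histidine, with 0.1 mM IPTG and 5 mM 3-AT. Fitness is the log change in variant-to-wild-type read ratio, rescaled against cognate and non-cognate.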

Row | Variant | one-hybrid fitness for binding parS DNA
1 | QADE | ≤ 0.2
2 | FTYS | ≤ 0.2
3 | HCQS | ≤ 0.2
4 | YTSS | ≤ 0.2
5 | YTFC | ≤ 0.2
6 | VVSD | ≤ 0.2
7 | NVKT | ≤ 0.2
8 | NLNY | ≤ 0.2
9 | QMEK | ≤ 0.2
10 | QRNS | ≤ 0.2
11 | TTPV | ≤ 0.2
12 | ATPW | ≤ 0.2
13 | EPCR | ≤ 0.2
14 | SKAC | ≤ 0.2
15 | QWNN | ≤ 0.2
16 | KTVT | ≤ 0.2
17 | YHAM | ≤ 0.2
18 | MALA | ≤ 0.2
19 | KTQW | ≤ 0.2
20 | EKPL | ≤ 0.2
21 | PYQV | ≤ 0.2
22 | LKKD | ≤ 0.2
23 | AACC | ≤ 0.2
24 | QWTS | ≤ 0.2
25 | TWEC | ≤ 0.2
26 | GTPR | ≤ 0.2

Row | Variant | one-hybrid fitness for binding parS DNA
27 | LHWT | ≤ 0.2
28 | CCNS | ≤ 0.2
29 | KAEC | ≤ 0.2
30 | AIGW | ≤ 0.2
31 | DAIK | ≤ 0.2
32 | IQHG | ≤ 0.2
33 | QQMN | ≤ 0.2
34 | LGTD | ≤ 0.2
35 | EAQR | ≤ 0.2
36 | SLAI | ≤ 0.2
37 | SVYF | ≤ 0.2
38 | VVFS | ≤ 0.2
39 | HYVR | ≤ 0.2
40 | DSAR | ≤ 0.2
41 | FAFS | ≤ 0.2
42 | HDNF | ≤ 0.2
43 | NAPW | ≤ 0.2
44 | VTSN | ≤ 0.2
45 | LAAG | ≤ 0.2
46 | RRIW | ≤ 0.2
47 | PHLK | ≤ 0.2
48 | RYES | 0.975
49 | PRTE | ≤ 0.2
50 | NQFD | ≤ 0.2
51 | MNRI | ≤ 0.2
52 | QEVT | ≤ 0.2

Row | Variant | one-hybrid fitness for binding parS DNA
53 | EAVD | ≤ 0.2
54 | RILP | ≤ 0.2
55 | SSVG | ≤ 0.2
56 | VYCE | ≤ 0.2
57 | DIRD | ≤ 0.2
58 | EVMR | ≤ 0.2
59 | CYRF | ≤ 0.2
60 | TSSK | ≤ 0.2
61 | KHNH | ≤ 0.2
62 | RCWP | 0.252
63 | YDKG | ≤ 0.2
64 | WLRL | ≤ 0.2
65 | THTT | ≤ 0.2
66 | ECNK | ≤ 0.2
67 | TYSV | ≤ 0.2
68 | MTSN | ≤ 0.2
69 | TKNT | ≤ 0.2
70 | DVTR | ≤ 0.2
71 | NYGY | ≤ 0.2
72 | RIFC | 0.96
73 | LVPV | ≤ 0.2
74 | HRQT | ≤ 0.2
75 | HAPN | ≤ 0.2
76 | QMDS | ≤ 0.2
77 | KRPS | ≤ 0.2
78 | PKDA | ≤ 0.2

Row | Variant | one-hybrid fitness for binding parS DNA
79 | NCFS | ≤ 0.2
80 | YCRA | ≤ 0.2
81 | YGCL | ≤ 0.2
82 | QLDS | ≤ 0.2
83 | TYQT | ≤ 0.2
84 | NAAM | ≤ 0.2
85 | CDRV | ≤ 0.2
86 | WTHY | ≤ 0.2
87 | QHQI | ≤ 0.2
88 | HLNI | ≤ 0.2
89 | MLTS | ≤ 0.2
90 | HHYV | ≤ 0.2
91 | VDSE | ≤ 0.2
92 | QHDT | ≤ 0.2
93 | FSIC | ≤ 0.2
94 | QAAK | ≤ 0.2
95 | YSVF | ≤ 0.2
96 | QRLV | ≤ 0.2
97 | REAK | ≤ 0.2
98 | WVEP | ≤ 0.2
99 | VCIT | ≤ 0.2
100 | CYNG | ≤ 0.2
101 | GYEN | ≤ 0.2
102 | GNFA | ≤ 0.2
103 | YGNG | ≤ 0.2
104 | APHK | ≤ 0.2

Row | Variant | one-hybrid fitness for binding parS DNA
105 | KVES | ≤ 0.2
106 | NLWT | ≤ 0.2
107 | QIRV | ≤ 0.2
108 | WIAI | ≤ 0.2
109 | LFPS | ≤ 0.2
110 | IQKL | ≤ 0.2
111 | YPPN | ≤ 0.2
112 | PTKD | ≤ 0.2
113 | LMTR | ≤ 0.2
114 | RKKW | 0.21
115 | SSLP | ≤ 0.2
116 | SWFT | ≤ 0.2
117 | RKTL | ≤ 0.2
118 | YWEG | ≤ 0.2
119 | PAHE | ≤ 0.2
120 | YDMR | ≤ 0.2
121 | HPDT | ≤ 0.2
122 | TENL | ≤ 0.2
123 | VHTL | ≤ 0.2
124 | TPRV | ≤ 0.2
125 | HYEG | ≤ 0.2
126 | SHKS | ≤ 0.2
127 | FAMS | ≤ 0.2
128 | RDIC | ≤ 0.2
129 | SVVM | ≤ 0.2
130 | CVQG | ≤ 0.2

Row | Variant | one-hybrid fitness for binding parS DNA
131 | SNCL | ≤ 0.2
132 | SHHD | ≤ 0.2
133 | PPEC | ≤ 0.2
134 | VVWS | ≤ 0.2
135 | QCYN | ≤ 0.2
136 | YFMY | ≤ 0.2
137 | RTDM | 0.289
138 | RDWT | ≤ 0.2
139 | RKMT | 0.824
140 | RGPK | ≤ 0.2
141 | YSQW | ≤ 0.2
142 | WGYG | ≤ 0.2
143 | LWET | ≤ 0.2
144 | LFAT | ≤ 0.2
145 | SGVG | ≤ 0.2
146 | KTES | ≤ 0.2
147 | PCHT | ≤ 0.2
148 | IWQV | ≤ 0.2
149 | RAQW | 0.226
150 | DYEV | ≤ 0.2
151 | KCAS | ≤ 0.2
152 | AHTI | ≤ 0.2
153 | YESP | ≤ 0.2
